Source: article PMC4336329 (PLoS ONE, 2015)
Out of some 310,000 compounds screened, about 14,000 (4.5%) showed an effect of 50% or more. Effects have a minus sign here. This is one part of the list.

The compounds below were run against human ether-à-go-go-related gene (hERG) potassium channel (human, UniProt Q12809) (assay: primary screen, population patch clamp on CHO cells stably expressing hERG).
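Also: peak tail current of the secondary pulse compared with the same well before compound.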

human ether-à-go-go-related gene (hERG) potassium channel, sequence (Q12809 whole entry, looked up): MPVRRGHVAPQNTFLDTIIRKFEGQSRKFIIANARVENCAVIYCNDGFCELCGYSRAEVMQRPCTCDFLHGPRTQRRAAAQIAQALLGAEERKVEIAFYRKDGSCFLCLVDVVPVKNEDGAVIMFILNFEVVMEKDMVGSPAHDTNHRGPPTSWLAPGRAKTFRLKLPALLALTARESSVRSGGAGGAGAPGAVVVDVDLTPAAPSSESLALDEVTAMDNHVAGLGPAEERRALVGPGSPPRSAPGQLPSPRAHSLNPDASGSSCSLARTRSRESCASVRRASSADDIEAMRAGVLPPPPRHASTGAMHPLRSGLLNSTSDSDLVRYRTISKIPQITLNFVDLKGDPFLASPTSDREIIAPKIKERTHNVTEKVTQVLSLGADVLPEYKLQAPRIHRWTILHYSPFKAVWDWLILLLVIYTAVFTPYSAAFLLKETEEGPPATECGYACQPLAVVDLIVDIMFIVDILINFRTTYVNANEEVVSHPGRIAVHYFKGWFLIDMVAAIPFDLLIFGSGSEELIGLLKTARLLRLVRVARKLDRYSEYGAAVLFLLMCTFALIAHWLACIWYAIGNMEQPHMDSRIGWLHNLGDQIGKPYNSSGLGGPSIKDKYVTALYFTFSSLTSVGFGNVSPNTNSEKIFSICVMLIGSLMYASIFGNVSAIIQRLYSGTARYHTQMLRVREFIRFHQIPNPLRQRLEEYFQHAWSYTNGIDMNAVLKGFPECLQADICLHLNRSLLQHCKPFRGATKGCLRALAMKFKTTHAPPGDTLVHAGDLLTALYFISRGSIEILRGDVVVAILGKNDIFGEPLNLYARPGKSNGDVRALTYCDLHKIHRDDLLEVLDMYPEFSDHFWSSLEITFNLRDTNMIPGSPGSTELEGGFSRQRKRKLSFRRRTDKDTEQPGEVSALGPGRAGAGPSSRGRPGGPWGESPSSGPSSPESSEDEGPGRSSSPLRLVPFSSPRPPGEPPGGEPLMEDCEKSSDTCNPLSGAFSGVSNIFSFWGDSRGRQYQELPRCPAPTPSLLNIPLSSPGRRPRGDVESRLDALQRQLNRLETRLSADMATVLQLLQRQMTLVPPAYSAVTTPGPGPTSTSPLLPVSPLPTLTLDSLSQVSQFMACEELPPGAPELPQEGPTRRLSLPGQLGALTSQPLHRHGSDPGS

| SMILES | hERG current change (%, negative = inhibition) at 10uM [%] |
| --- | --- |
| Cc1ccc(S(=O)(=O)N2CCC(C(=O)OCC(=O)N3CCCC(C)C3)CC2)cc1C (stereo not drawn) | -34.3 |
| Cc1ccc(NC(=O)c2ccc3c(c2)S(=O)(=O)c2ccccc2C3=O)cc1S(=O)(=O)N1CCOCC1 | 7.63 |
| Cc1[nH]n(-c2nc(-c3cccc([N+](=O)[O-])c3)cs2)c(=O)c1C | 14.9 |
| O=C(Nc1ccc(Cl)c(Cl)c1)Nc1ccc([N+](=O)[O-])cn1 | 22.8 |
| Cc1ccccc1NC(=S)NC(=O)c1cncc(Br)c1 | 13.2 |
| CC(/C=C/c1ccccc1)=N\NC(=O)c1ccc(Br)cc1 | -4.99 |
| c1ccn2cc(CSc3nnc4ccccn34)nc2c1 | 12.8 |
| COc1cccc(N2CCN(C(=O)c3cc4c(s3)-c3ccccc3OC4)CC2)c1 | -15.3 |
| O=C(NC1=NCCS1)c1cc(-c2ccc(F)cc2)nc2ccccc12 | 7.49 |
| Cc1nn2c(Nc3ccc(F)cc3)c3c(nc2c1-c1ccccc1)CCC3 | 11.9 |
| O=C(Cc1ccccc1)N1CCN(Cc2cccnc2)CC1.O=C(O)C(=O)O | 4.67 |
| CO.Cc1ccc(C2=NCN(c3ccc(C(=O)O)cc3)C(=S)N2)cc1 | 15.8 |
| CCCN(C(=O)CCNC(=O)Cn1cnc2ccccc2c1=O)c1cccc(C)c1 | 11.4 |
| COc1ccc(-c2cc(-c3ccc(OC)c(OC)c3)n[nH]2)c(O)c1 | 2.38 |
| Cc1cc(C)c2nc(/N=C(\N)NC(=O)c3ccccc3)nc(C)c2c1 | 6.93 |
| CC(C)Cn1c(SCC#N)nc2ccccc2c1=O | 6.21 |
| O=C(CCn1ccnc1)Nc1ccc2ccccc2c1 | -2.09 |
| O=C(OCC(=O)N1CCN(C(=O)c2ccco2)CC1)C1=COCCO1 | 38.6 |
| Cc1cccc2sc(NC(=O)CSc3nc4ccccc4o3)nc12 | -9.76 |
| CC1(C)Oc2ccc3ccc(=O)oc3c2C[C@H]1O | 9.21 |
| COc1ccc(Cc2nnc(NC(=O)Nc3ccc(F)cc3)s2)cc1 | 22.7 |
| COC(=O)[C@]12OC[C@]34C([C@@H](O)[C@@H]1O)[C@]1(C)CC(=O)C(O)=C(C)[C@@H]1C[C@H]3OC(=O)[C@H](O)[C@@H]24 (stereo partly drawn) | 18 |

| SMILES | hERG current change (%, negative = inhibition) at 10uM [%] |
| --- | --- |
| CC(C)C(c1nnnn1C(C)(C)C)N1CCOCC1 (stereo not drawn) | 5.37 |
| CCC(=O)c1coc2ccc(O)cc12 | 7.22 |
| COc1ccc(/C(C)=N/Nc2ccc(C(=O)O)cc2)cc1OC.O=S(=O)(O)O | 5.63 |
| Cc1ccc(N2CC(NS(=O)(=O)c3cc(F)ccc3F)CC2=O)cc1C (stereo not drawn) | -6.74 |
| O=C(CNC(=O)c1cccs1)c1ccc(Br)cc1 | 12.2 |
| CC(=O)c1c(COC(=O)c2ccccc2Cl)nc2ccccc2[n+]1[O-] | -8.73 |
| CC(=O)Nc1ccc(NC(=O)c2ccc(COc3ccc4c(C)cc(=O)oc4c3)cc2)cc1 | 10.6 |
| C=CCN1C(=O)CS/C1=N\S(=O)(=O)c1ccc(Cl)cc1 | 2.52 |
| COc1ccc(NC(=O)C2CCCN(S(=O)(=O)c3cccs3)C2)cc1OC (stereo not drawn) | 1.68 |
| O=C(Nc1cccc2cccnc12)c1cccc(Cl)c1 | 13.8 |
| C[C@H]1CC[C@@]2(C)[C@@H](CC[C@@H]3[C@@H]2CC[C@]2(C)[C@@H](O)CC[C@@H]32)C1 | 2.99 |
| O=C(Nc1cccc(Cl)c1Cl)C1CCN(c2ncccn2)CC1 | 15.3 |
| N#C/C(C(=O)N1CCOCC1)=c1/s/c(=C\c2ccccn2)c(=O)n1-c1ccccc1 | 17.6 |
| COc1ccc(N2CCN(C(=O)CSc3nnc(-c4ccc5[nH]c(C)c(C)c5c4)o3)CC2)cc1 | 9.37 |
| CCOc1ccc(S(=O)(=O)N2CCCCC2)cc1NC(=O)C1CCC1 | 0.496 |
| COc1ccc(-c2nc(CSCC(=O)NCc3ccc4c(c3)OCO4)c(C)o2)cc1 | -6.05 |
| COc1ccc(CCNC(=O)COC(=O)/C=C/c2cc(OC)c(OC)c(OC)c2)cc1OC | 12.8 |
| CCn1cc(/C=N\NC(=O)Cc2ccc(Cl)cc2)cn1 | -12 |
| CC(C)CC(=O)Nc1ccnn1C1CCN(C(=O)c2ccccc2F)CC1 | 19 |
| O=C(NC1CCCCC1)[C@H](O)[C@@H](O)C(=O)NC1CCCCC1 | 16.8 |
| COCCCn1c(=O)cc(C)[nH]c1=S | 15.6 |
| O=C(OC1CCOC1=O)c1cc(-c2ccc(Cl)cc2)nc2ccccc12 (stereo not drawn) | 10.2 |

| SMILES | hERG current change (%, negative = inhibition) at 10uM [%] |
| --- | --- |
| CC(=O)c1ccc(N2CCN(S(=O)(=O)c3csc(C(N)=O)c3)CC2)cc1 | -26.1 |
| Cc1cccc(NCc2nc3ccccc3n2Cc2ccccc2)c1 | -13.1 |
| COc1n[nH]c(C(=O)NCc2ccccc2)c1[N+](=O)[O-] | 21.1 |
| CC(C)(C)Nc1nc(C(N)=O)nc(N2CCOCC2)n1 | -0.829 |
| CCOC(=O)c1cnc(Nc2ccccc2)nc1C(F)(F)F | -2.36 |
| Cc1ccc(/C=N/n2c(COc3ccccc3)n[nH]c2=S)o1 | 4.76 |
| CC(c1ccccc1)N1C(=O)c2ccc(C(=O)Nc3ccccc3C(=O)O)cc2C1=O (stereo not drawn) | 18.7 |
| CSc1ccc(S(=O)(=O)NC2CCCCC2)cc1 | -25.8 |
| COc1cc(C(=O)NC2CC(C)(C)CC(C)(C)C2)ccc1OC1CCN(C(C)=O)CC1 | 6.2 |
| CCN1CCN(Cc2ccc(C(=O)Nc3ccc(C)c(NCc4cnc(NC(=O)OC)cn4)c3)cc2C(F)(F)F)CC1 | 6.69 |
| O=C(Nc1ccc(NC(=S)NC(=O)c2cccs2)cc1)c1ccco1 | 56.8 |
| COc1ccc(-n2c(=O)c3ccccc3n(CC(=O)c3ccccc3)c2=O)cc1OC | -1.32 |
| Cc1cc(C(=O)Nc2c(C)nn(Cc3ccc(Cl)cc3)c2C)no1 | -15.4 |
| O=C(O)CSCC(=O)Nc1ccccc1SCCS(=O)(=O)c1ccc(Cl)cc1 | 14.4 |
| O=C(CSc1nnc(-c2ccco2)o1)NC1CCCCC1 | 14.6 |
| O=C(CSc1nnc(NC(=O)c2ccccc2F)s1)NC1CCCC1 | 14 |
| COc1ccccc1NCC(=O)N/N=C/c1c(O)ccc2ccccc12 | -16.7 |
| Cc1ccc(NS(=O)(=O)c2ccc3c(c2)NC(=O)CCS3)c(C)c1 | 6.93 |
| COc1ccc(S(=O)(=O)n2nc(OC(=O)C3CCCCC3)cc2N)cc1 | 5.38 |
| O=C(CCCN1C(=O)C(c2ccccc2)Oc2cccnc21)Nc1ccccc1Cl (stereo not drawn) | 20.2 |
| CSCC[C@H](NC(=O)OC(C)(C)C)C(=O)N1CCC(C(=O)N[C@@H](C)C(=O)NCc2ccc(F)cc2)CC1 | 1.15 |
| COc1ccc(NC(=O)CCNC(=O)Cn2cnc3sc4c(c3c2=O)CCCC4)c(OC)c1 | 2.88 |

| SMILES | hERG current change (%, negative = inhibition) at 10uM [%] |
| --- | --- |
| COc1ccc(NP(=O)(Oc2ccccc2OC)Oc2ccccc2OC)cc1 | -0.0316 |
| O=C(CN1CCN(c2ccccn2)CC1)Nc1ccccc1F | 1.45 |
| C=CCNC(=S)N/N=C/c1ccc(OCc2ccccc2)cc1 | -1.67 |
| Cc1ccccc1CNC(=O)C1CCC(=O)N(CC2CCCCC2)C1 (stereo not drawn) | -11.8 |
| Cc1cccc(NC(=O)c2cccc(OC(=S)N3CCOCC3)c2)c1 | -8.01 |
| Cc1nn(-c2ccccc2)c(Cl)c1C(=O)NCCN(C)C | 15.9 |
| Cc1ccc(C2(C)NC(=O)N(CC(=O)c3ccc(Cl)s3)C2=O)cc1 (stereo not drawn) | -2.75 |
| Cc1cccc(N2CCN(C(=O)/C=C/c3ccco3)CC2)c1C | -25.1 |
| COc1ccc(NCC(=O)N/N=C2\CCc3ccccc32)cc1 | 1.87 |
| O=S(=O)(Cc1ccccc1)N1CCCc2ccccc21 | 0.566 |
| Cc1ccccc1C(=O)NC(=S)Nc1ccc(S(=O)(=O)N(C)c2ccccc2)cc1 | 0.146 |
| CC1CCCC(C)N1C(=O)CSc1nc(N)c(-c2ccccc2)c(=O)[nH]1 (stereo not drawn) | -3.45 |
| Nc1cc(N2CCCCCC2)c2nonc2c1[N+](=O)[O-] | 18.5 |
| O=C(O)CCCN1C(=O)C2C3CC(C2C1=O)C1C(c2ccccc2)c2sc(=O)n(-c4ccccc4)c2SC31 (stereo not drawn) | 12 |
| CC1CCCCC1NC(=O)COC(=O)CCC(=O)c1cccs1 (stereo not drawn) | 17.3 |
| CCCN(CC1CC1)C(=S)Nc1ccc(C(C)=O)cc1 | 0.105 |
| COc1ccccc1CCC(=O)N(CCC1=CCCCC1)c1c(N)n(Cc2ccccc2)c(=O)[nH]c1=O | 0.333 |
| Cc1ccsc1C(=O)NNC(=O)C1C2C=CC(C2)C1C(=O)O (stereo not drawn) | 11.8 |
| Cc1c(CCC(=O)NCCCn2ccnc2)c(=O)oc2c(C)c3oc4c(c3cc12)CCCC4 | -31.3 |
| CCNC(=S)NNC(=O)C1CCN(Cc2ccccc2)CC1 | 23.2 |
| CNC(=O)C1CCN(S(=O)(=O)c2c(C)noc2/C=C/N(C)C)CC1 | -1.72 |
